Measurements as given in the supplement of paper PMC8728848.
This is one part of the list.

What was measured:
Test in all cases: glycan array binding signal (z-score within array); higher = stronger binding
Conditions in all cases: glycan notation: IUPAC condensed, linker removed
[1] = target: Neu5Ac(a2-3)Gal(b1-3)GalNAc
How it was run: (§1)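 Glycan array data were curated from 3228 arrays in the Consortium for Functional Glycomics database and kept only where the protein sequence was available. Glycan names were converted to IUPAC-condensed notation, and columns mapping to the same glycan were averaged. The binding signal is a within-array Z-score, averaged across arrays of the same protein sequence at different concentrations or buffers and across linkers. Negative Z-scores can be read as non-binding.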

[2] = target: Neu5Ac(a2-3)Gal(b1-3)GalNAc(b1-3)Gal(a1-4)Gal(b1-4)Glc
How it was run: as §1

[3] = target: Neu5Ac(a2-3)Gal(b1-3)GalNAc(b1-4)[Neu5Ac(a2-3)]Gal(b1-4)Glc
How it was run: as §1

[4] = target: Neu5Ac(a2-3)Gal(b1-3)GalNAc(b1-4)[Neu5Ac(a2-8)Neu5Ac(a2-3)]Gal(b1-4)Glc
How it was run: as §1

[5] = target: Neu5Ac(a2-3)Gal(b1-3)GalNAc6S
How it was run: as §1

[6] = target: Neu5Ac(a2-3)Gal(b1-3)GlcNAc
How it was run: as §1

[7] = target: Neu5Ac(a2-3)Gal(b1-3)GlcNAc(b1-2)Man
How it was run: as §1

[8] = target: Neu5Ac(a2-3)Gal(b1-3)GlcNAc(b1-2)Man(a1-3)[GlcNAc(b1-4)][Neu5Ac(a2-3)Gal(b1-3)GlcNAc(b1-2)Man(a1-6)]Man(b1-4)GlcNAc(b1-4)GlcNAc
How it was run: as §1

[9] = target: Neu5Ac(a2-3)Gal(b1-3)GlcNAc(b1-2)Man(a1-3)[Neu5Ac(a2-3)Gal(b1-3)GlcNAc(b1-2)Man(a1-6)]Man(b1-4)GlcNAc(b1-4)GlcNAc
How it was run: as §1

[10] = target: Neu5Ac(a2-3)Gal(b1-3)GlcNAc(b1-3)Gal(b1-3)GlcNAc
How it was run: as §1

[11] = target: Neu5Ac(a2-3)Gal(b1-3)GlcNAc(b1-3)Gal(b1-4)GlcNAc
How it was run: as §1

[12] = target: Neu5Ac(a2-3)Gal(b1-3)GlcNAc(b1-3)GalNAc
How it was run: as §1

[13] = target: Neu5Ac(a2-3)Gal(b1-3)GlcNAc(b1-4)Gal(b1-4)Glc
How it was run: as §1

[14] = target: Neu5Ac(a2-3)Gal(b1-3)GlcNAc(b1-6)GalNAc
How it was run: as §1

[15] = target: Neu5Ac(a2-3)Gal(b1-3)GlcNAc6S
How it was run: as §1

[16] = target: Neu5Ac(a2-3)Gal(b1-3)[Fuc(a1-4)]GlcNAc
How it was run: as §1

[17] = target: Neu5Ac(a2-3)Gal(b1-3)[Fuc(a1-4)]GlcNAc(b1-3)Gal(b1-3)[Fuc(a1-4)]GlcNAc
How it was run: as §1

[18] = target: Neu5Ac(a2-3)Gal(b1-3)[Fuc(a1-4)]GlcNAc(b1-3)Gal(b1-4)[Fuc(a1-3)]GlcNAc
How it was run: as §1

[19] = target: Neu5Ac(a2-3)Gal(b1-3)[GlcNAc(b1-6)]GalNAc
How it was run: as §1

[20] = target: Neu5Ac(a2-3)Gal(b1-3)[Neu5Ac(a2-6)]GalNAc
How it was run: as §1

[21] = target: Neu5Ac(a2-3)Gal(b1-3)[Neu5Ac(a2-6)]GlcNAc(b1-3)[Fuc(a1-3)[Gal(b1-4)]GlcNAc(b1-6)]Gal(b1-4)Glc
How it was run: as §1

[22] = target: Neu5Ac(a2-3)Gal(b1-3)]Neu5Ac(a2-3)Gal(b1-4)]GlcNAc
How it was run: as §1

Neu5Ac(a2-3)Gal(b1-4)Glc = target: Neu5Ac(a2-3)Gal(b1-4)Glc
How it was run: as §1

[23] = target: Neu5Ac(a2-3)Gal(b1-4)GlcNAc
How it was run: as §1

[24] = target: Neu5Ac(a2-3)Gal(b1-4)GlcNAc(b1-2)Man
How it was run: as §1

[25] = target: Neu5Ac(a2-3)Gal(b1-4)GlcNAc(b1-2)Man(a1-3)[GlcNAc(b1-4)][Neu5Ac(a2-3)Gal(b1-4)GlcNAc(b1-2)Man(a1-6)]Man(b1-4)GlcNAc(b1-4)GlcNAc
How it was run: as §1

[26] = target: Neu5Ac(a2-3)Gal(b1-4)GlcNAc(b1-2)Man(a1-3)[Neu5Ac(a2-3)Gal(b1-4)GlcNAc(b1-2)Man(a1-6)]Man(b1-4)GlcNAc(b1-4)GlcNAc
How it was run: as §1

[27] = target: Neu5Ac(a2-3)Gal(b1-4)GlcNAc(b1-2)Man(a1-3)[Neu5Ac(a2-3)Gal(b1-4)GlcNAc(b1-2)Man(a1-6)]Man(b1-4)GlcNAc(b1-4)[Fuc(a1-6)]GlcNAc
How it was run: as §1

[28] = target: Neu5Ac(a2-3)Gal(b1-4)GlcNAc(b1-2)Man(a1-3)[Neu5Ac(a2-6)Gal(b1-4)GlcNAc(b1-2)Man(a1-6)]Man(b1-4)GlcNAc(b1-4)GlcNAc
How it was run: as §1

[29] = target: Neu5Ac(a2-3)Gal(b1-4)GlcNAc(b1-2)[Neu5Ac(a2-3)Gal(b1-4)GlcNAc(b1-4)]Man(a1-3)[GlcNAc(b1-4)][Neu5Ac(a2-3)Gal(b1-4)GlcNAc(b1-2)[Neu5Ac(a2-3)Gal(b1-4)GlcNAc(b1-6)]Man(a1-6)]Man(b1-4)GlcNAc(b1-4)GlcNAc
How it was run: as §1

[30] = target: Neu5Ac(a2-3)Gal(b1-4)GlcNAc(b1-2)[Neu5Ac(a2-3)Gal(b1-4)GlcNAc(b1-4)]Man(a1-3)[GlcNAc(b1-4)][Neu5Ac(a2-3)Gal(b1-4)GlcNAc(b1-4)Man(a1-6)]Man(b1-4)GlcNAc(b1-4)GlcNAc
How it was run: as §1

[31] = target: Neu5Ac(a2-3)Gal(b1-4)GlcNAc(b1-2)[Neu5Ac(a2-3)Gal(b1-4)GlcNAc(b1-6)]Man(a1-6)[Neu5Ac(a2-3)Gal(b1-4)GlcNAc(b1-2)Man(a1-3)]Man(b1-4)GlcNAc(b1-4)GlcNAc
How it was run: as §1

[32] = target: Neu5Ac(a2-3)Gal(b1-4)GlcNAc(b1-2)[Neu5Ac(a2-3)Gal(b1-4)GlcNAc(b1-6)]Man(a1-6)[Neu5Ac(a2-3)Gal(b1-4)GlcNAc(b1-2)Man(a1-3)][GlcNAc(b1-4)]Man(b1-4)GlcNAc(b1-4)GlcNAc
How it was run: as §1

[33] = target: Neu5Ac(a2-3)Gal(b1-4)GlcNAc(b1-3)Gal
How it was run: as §1

[34] = target: Neu5Ac(a2-3)Gal(b1-4)GlcNAc(b1-3)Gal(b1-3)GlcNAc
How it was run: as §1

[35] = target: Neu5Ac(a2-3)Gal(b1-4)GlcNAc(b1-3)Gal(b1-4)GlcNAc
How it was run: as §1

[36] = target: Neu5Ac(a2-3)Gal(b1-4)GlcNAc(b1-3)Gal(b1-4)GlcNAc(b1-2)Man(a1-3)[Neu5Ac(a2-3)Gal(b1-4)GlcNAc(b1-3)Gal(b1-4)GlcNAc(b1-2)Man(a1-6)]Man(b1-4)GlcNAc(b1-4)GlcNAc
How it was run: as §1

B1: Na-CTL-1 (Necator americanus) (protein)
chain: MQRSFLLLLVVLAGAWAVNTTIPLKLMGGFTPMKYQCVGRVSDIWADVLFLIESSDMITKSGFRQVIAFITATTKKMTIGQDEKQTRVGFITYGEEAKLIYDLDHWRSTEKLSDLVQKIPYVKSSGTNIAAAIALANKVFNSPTHRPNVPKVMVIVANGLKKGSQNPIPVATAFKDFGGIIITIEYTQYDNIQVPILKKIASEGYNIRSNDEDFSVRTLTNMLLQANCFCPDHYVPFRVNNPEFGCFVTAKIPSMWRDAAEMCRAVEEGKLVKVENEEKAAFIMKLVGPKKEAWIGLRYYGNKFQWTDGTKLNADDFNLWPEDIKELNGPHCVSMYQDQKDKKYYWRAGKCLEDMRYVCEVQPCSASNYCSEPVFMYRQKHRALLPAPPPPPN
How did the “glycan array binding signal (z-score)” value [1] turn out when B1 was run?
Its value is 1.04.

What about the “glycan array binding signal (z-score)” value [2] of the same binder?
Its value is -0.094.

What about the “glycan array binding signal (z-score)” value [3] of the same binder?
The value was 0.065.

What about the “glycan array binding signal (z-score)” value [4] of the same binder?
Its value is -0.304.

And the “glycan array binding signal (z-score)” value [5]?
Its value is 0.024.

And the “glycan array binding signal (z-score)” value [6]?
Its value is -0.301.

What about the “glycan array binding signal (z-score)” value [7] of the same binder?
The value was 0.012.

And the “glycan array binding signal (z-score)” value [8]?
The value was -0.172.

And the “glycan array binding signal (z-score)” value [9]?
The value was -0.05.

And the “glycan array binding signal (z-score)” value [10]?
The value was -0.345.

What about the “glycan array binding signal (z-score)” value [11] of the same binder?
Its value is 0.041.

What about the “glycan array binding signal (z-score)” value [12] of the same binder?
The value was -0.655.

And the “glycan array binding signal (z-score)” value [13]?
The value was -0.381.

And the “glycan array binding signal (z-score)” value [14]?
The value was 0.262.

And the “glycan array binding signal (z-score)” value [15]?
Its value is 0.215.

And the “glycan array binding signal (z-score)” value [16]?
The value was 0.115.

And the “glycan array binding signal (z-score)” value [17]?
Its value is -0.347.

And the “glycan array binding signal (z-score)” value [18]?
Its value is 0.365.

And the “glycan array binding signal (z-score)” value [19]?
Its value is -0.018.

What about the “glycan array binding signal (z-score)” value [20] of the same binder?
The value was -0.351.

What about the “glycan array binding signal (z-score)” value [21] of the same binder?
The value was -0.348.

And the “glycan array binding signal (z-score)” value [22]?
Its value is -0.161.

And the “glycan array binding signal (z-score)” value (Neu5Ac(a2-3)Gal(b1-4)Glc)?
The value was 2.35.

What about the “glycan array binding signal (z-score)” value [23] of the same binder?
Its value is 0.102.

And the “glycan array binding signal (z-score)” value [24]?
The value was 0.152.

What about the “glycan array binding signal (z-score)” value [25] of the same binder?
Its value is -0.114.

And the “glycan array binding signal (z-score)” value [26]?
Its value is 0.287.

What about the “glycan array binding signal (z-score)” value [27] of the same binder?
Its value is 0.341.

What about the “glycan array binding signal (z-score)” value [28] of the same binder?
Its value is -0.176.

And the “glycan array binding signal (z-score)” value [29]?
Its value is -0.059.

And the “glycan array binding signal (z-score)” value [30]?
The value was 0.04.

What about the “glycan array binding signal (z-score)” value [31] of the same binder?
The value was -0.312.

And the “glycan array binding signal (z-score)” value [32]?
The value was -0.202.

What about the “glycan array binding signal (z-score)” value [33] of the same binder?
The value was -0.2.

And the “glycan array binding signal (z-score)” value [34]?
The value was -0.713.

What about the “glycan array binding signal (z-score)” value [35] of the same binder?
The value was -0.293.

What about the “glycan array binding signal (z-score)” value [36] of the same binder?
Its value is -0.287.
